Consider 89 compounds from PubChem BioAssay AID463173 (ICCB-Longwood Screening Facility, Harvard Medical School, 2010).

SMILES strings stand for the structures. About 1,700 (3.3%) of roughly 52,000 compounds were called active. No stated cut-off is given here; in the data, active means survival mostly below about 52% (no sharp cut-off); inactive means mostly above about 56%. The list shows a part of the results.

For this experiment, the system named is Wild type. Put plainly: growth inhibition of S. aureus wild type versus tarO mutant, primary screen, teichoic acid synthesis inhibitors, RN4220, OD600 (AID 463173). The settings on record: S. aureus RN4220 wild type/DeltatarO growth, OD600, 18 h, hits give low values, screened at 18.75 µg/mL (by protocol).
On to `Cc1ccc(-c2nnc(SCCOc3ccccc3)o2)cc1`, for which the survival was inactive: 110%.

For the compound `COc1ccc(Br)c2c1-c1nc(NC(=O)c3cccc(C)c3)sc1C2`, the survival is inactive: 64%.

For `CC(OC(=O)c1nsc(Cl)c1Cl)C(=O)NCc1cccs1` (centres undefined), the survival is inactive: 111%.

As for `CCOc1ccc(-n2nc(CO)c(C(=O)NCc3ccc(Cl)cc3)n2)cc1`, the survival is inactive: 87%.

With `CC(=O)c1ccc(NC(=O)CSc2cn(CC(=O)N3CCCCC3)c3ccccc23)cc1`, the survival was inactive: 88%.

In the case of `CCOc1ccc(-c2cn(-c3ccc(OC)cc3)c(SCC(=O)Nc3ccccc3Cl)n2)cc1`, the survival was inactive: 78%.

`COc1ccc(F)cc1S(=O)(=O)NCCc1csc(-c2ccc(Cl)cc2)n1`: the survival was inactive: 82%.

On to `CCc1ccc(NC(=O)C2CCN(c3nnc(-n4c(C)ccc4C)s3)CC2)cc1`, for which the survival is inactive: 82%.

With `CCC(=O)Nc1sc2c(c1C(=O)Nc1ccc(OC)cc1)CCC(C(C)(C)C)C2` (centres undefined), the survival is active: 2%.

Take `CC(C)(CN)C(O)C(=O)O` (centres undefined): the survival is inactive: 104%.

With `Cc1cc(C)c(S(=O)(=O)NCCc2cc3c(C)ccc(C)c3[nH]c2=O)c(C)c1`, the survival is inactive: 77%.

Take `Cc1ccc(NC(=O)C2Cc3ccccc3N2C(=O)c2ccccc2)cc1Cl` (centres undefined): the survival is inactive: 74%.

`O=C(Nc1ccc(S(=O)(=O)N2CCC(c3nc4ccccc4s3)CC2)cc1)c1ccc(F)cc1`: the survival is inactive: 89%.

For the compound `Nc1no[n+]([O-])c1C(=O)NCCO`, the survival was inactive: 101%.

As to `Cc1ccc(C)c(-n2nnc(-c3nc(-c4ccc(Cl)cc4)no3)c2N)c1`, the survival was inactive: 96%.

For `CCCC(=O)NCCc1nc2ccccc2n1Cc1c(F)cccc1Cl`, the survival is inactive: 66%.

`COc1ccc(OC)c(NC(=O)CSC2=Nc3ccccc3C3=NC(CC(=O)NCc4ccco4)C(=O)N23)c1` (centres undefined): the survival is inactive: 95%.

As for `CC1C(=O)NN=C1C(=O)N/N=C\c1cccnc1` (centres undefined), the survival is inactive: 111%.

`COc1ccc(NC(=O)c2sc3nc(C)c(C(=O)Nc4ccc(C)cc4C)c(-c4ccc(Cl)cc4)c3c2N)cc1`: the survival was inactive: 71%.

Take `O=C(NCc1ccc2c(c1)CCN2C(=O)c1ccncc1)c1cccc(Cl)c1`: the survival is inactive: 83%.

Take `Cc1oc(-c2ccccc2F)nc1CS(=O)(=O)CC(=O)N1CCN(c2cccc(C(F)(F)F)c2)CC1`: the survival was inactive: 76%.

For the compound `N#Cc1ccc(C(=O)Nc2ccc(Cl)c(-c3nc4cc(Cl)ccc4o3)c2)c(F)c1`, the survival was inactive: 58%.

With `Cc1ccc(C(=O)NCC(c2cccs2)S(=O)(=O)c2cccs2)cc1C` (centres undefined), the survival is inactive: 80%.

In the case of `Fc1ccc(CNCc2ccccc2)cc1`, the survival is inactive: 110%.

As to `CCOc1ccc(NC(=O)CN(C)S(=O)(=O)c2ccc3c(c2)c(=O)n(C)c(=O)n3C)cc1`, the survival was inactive: 82%.

For `COc1cc(OC)cc(C(=O)Nc2cc(-c3nc4ccccc4s3)ccc2OC)c1`, the survival was inactive: 67%.

In the case of `Cc1ccc(NC(=O)c2cccc(NC(=O)N3CCSc4ncccc43)c2)cc1Cl`, the survival was inactive: 63%.

For the compound `COc1ccc(N2CCN(C(=O)Cn3ncc4c3-c3cc(C)ccc3OC4)CC2)cc1`, the survival is inactive: 129%.

Consider `COc1ccc(-c2nc3sc(CCNC(=O)C(=O)Nc4cc(C)cc(C)c4)c(C)n3n2)cc1`, for which the survival was inactive: 89%.

On to `CCN(C(=O)c1nn(-c2ccc(OC)c(Cl)c2)c(=O)c2c1c1ccccc1n2C)c1cc(OC)ccc1OC`, for which the survival is inactive: 91%.

`O=C(NCC(c1ccc(Cl)cc1)N1CCCCC1)c1ccc(F)cc1` (centres undefined): the survival is inactive: 85%.

On to `COc1ccc(C(=O)NCC(c2cccnc2)N2CCN(c3ccc(F)cc3)CC2)cc1` (centres undefined), for which the survival is inactive: 84%.

With `COc1cccc(-c2cc(C(F)(F)F)nc(-n3nc(C)c(Br)c3C)n2)c1`, the survival was inactive: 80%.

In the case of `CC(=O)Nc1nonc1NC(C)=O`, the survival was inactive: 104%.

As to `Nc1nc(N)c(S(=O)(=O)c2ccccc2)c(Nc2ccc(Br)cc2)n1`, the survival is inactive: 65%.

Consider `O=C(CSc1ccc2nc(-c3ccccc3)cn2n1)Nc1ccccc1C(F)(F)F`, for which the survival is inactive: 73%.

On to `Cc1ccc(-n2c(SCc3ccccc3F)nc3[nH]ncc3c2=O)cc1C`, for which the survival is inactive: 80%.

Regarding `COc1ccccc1CNC(=O)c1cccn1-c1nnc(N2CCCC2)s1`, the survival was inactive: 81%.

Regarding `Cc1cccc(NC(=O)Cn2nc(-c3ccc(Cl)cc3)c3ccccc3c2=O)c1`, the survival is inactive: 133%.

For `CCC(c1ccc(F)cc1)n1cc(C(=O)NCCc2ccco2)nn1` (centres undefined), the survival was inactive: 103%.

Consider `CCOc1cccc2cc(-c3nc4sc(C(=O)Nc5ccc(C)cc5)c(C)c4c(=O)[nH]3)c(=O)oc12`, for which the survival is inactive: 90%.

With `O=S(=O)(c1cccc(S(=O)(=O)N2CCOCC2)c1)N1CCCCCC1`, the survival is inactive: 98%.

Regarding `O=C(Nc1cccc(-c2nc3ncccc3o2)c1)c1ccc(-c2cccc(Cl)c2Cl)o1`, the survival is inactive: 79%.

With `Cc1cccc(NC(=O)C(=O)c2cc(C)n(-c3ccccc3)c2C)c1C`, the survival is inactive: 79%.

In the case of `Cc1cc(O)c(C(c2cccc(F)c2)N2CCC(C)CC2)c(=O)n1Cc1ccco1` (centres undefined), the survival is inactive: 85%.

As for `O=C(Cn1c(=O)n(Cc2cccs2)c(=O)c2cccnc21)Nc1ccccc1F`, the survival is inactive: 75%.

In the case of `O=C(NCCc1ccc(Cl)cc1)c1cccn1-c1nnc(N2CCCCC2)s1`, the survival is inactive: 88%.

With `COc1ccc(N2CCN(C(=O)CSCc3nc(-c4ccccc4Cl)oc3C)CC2)cc1`, the survival is inactive: 64%.

In the case of `CCc1nc(-c2cc(S(=O)(=O)N3CCN(c4ccc(F)cc4)CC3)ccc2OC)no1`, the survival was inactive: 85%.

`CN(C1CCCCC1)S(=O)(=O)c1ccc(C(=O)Nc2sc3c(c2C(N)=O)CC(C)(C)NC3(C)C)cc1`: the survival was inactive: 77%.

Turning to `CC(=O)c1cc(-c2ccccc2)n(CC(=O)NC2CCCCCC2)c1C`, the survival was inactive: 132%.

With `O=C(Nc1cccc(C(F)(F)F)c1)c1noc2c1CCc1ccccc1-2`, the survival is inactive: 83%.

`Cc1cccc(NC(=O)CSc2nc3c(c(=O)[nH]2)CN(Cc2ccc4c(c2)OCO4)CC3)c1C`: the survival was inactive: 88%.

For `CCc1ccc(-n2c(=O)c3cccnc3n2CC(=O)NCc2ccc(F)cc2)cc1`, the survival is inactive: 67%.

Take `O=c1c2c3c(sc2nc2n1CCCCC2)C(O)CCC3` (centres undefined): the survival was inactive: 101%.

On to `CNC(=O)c1ccc(Nc2nnc(-c3ccc(C)c(S(=O)(=O)NC(C)(C)C)c3)c3ccccc23)cc1`, for which the survival is inactive: 97%.

As for `Cn1c(=O)c(=O)n(C)c2cc(S(=O)(=O)N3CCN(c4ccccc4F)CC3)ccc21`, the survival is inactive: 84%.

For `O=C(NCc1cccc(F)c1)c1ccc(CS(=O)c2ccccc2Cl)o1` (centres undefined), the survival is inactive: 96%.

Consider `COc1ccccc1NC(=O)CCN1CCC(C(N)=O)CC1`, for which the survival is inactive: 153%.

As for `CCOC(=O)N1CCc2c(sc3c2c(=O)n(Cc2ccccc2)c(=O)n3CC(=O)Nc2c(C)cccc2C)C1`, the survival is inactive: 121%.

For `CCOCN(C(=O)Cn1c(C(C)O)nc2ccccc21)c1c(C)cccc1CC` (centres undefined), the survival was inactive: 117%.

As for `Cc1ccc(C(=O)Nc2ccc(-n3c(C)nc4ccccc4c3=O)cc2)cc1[N+](=O)[O-]`, the survival is inactive: 121%.

As for `CCN(CC)CC(=O)c1c[nH]c2ccccc12`, the survival was inactive: 108%.

As to `COc1ccc(CCNC(=O)Cc2c(C)c3cc(OC)c(OC)cc3oc2=O)cc1`, the survival is inactive: 87%.

For `Cc1cccc(C)c1OCC(=O)Nc1nonc1-c1ccc(Br)cc1`, the survival is inactive: 35%.

As to `CCOc1ccc2oc(=O)cc(CN3CCN(c4ccc(OC)cc4)CC3)c2c1`, the survival was inactive: 75%.

On to `CCN(C(=O)c1cc2c(s1)-c1c(C)cccc1OC2)c1cc(C)ccc1C`, for which the survival is active: 11%.

On to `CCN(C(=O)CCS(=O)(=O)c1cccc2nsnc12)c1cccc(C)c1`, for which the survival is inactive: 88%.

In the case of `O=C(Nc1nc2n(n1)C(c1ccc(F)cc1)C=C(c1ccc(Cl)cc1)N2)c1ccco1` (centres undefined), the survival is inactive: 28%.

Consider `CCOC(=O)c1ccc(N2C(=O)c3n[nH]c(-c4cccs4)c3C2c2ccc(O)c(OC)c2)cc1` (centres undefined), for which the survival was inactive: 93%.

On to `O=C(NCC12CC3CC(CC(C3)C1)C2)c1cc2nc(-c3ccc(Cl)cc3)cc(C(F)(F)F)n2n1`, for which the survival was inactive: 60%.

With `Cc1cc(S(=O)(=O)Nc2cc3c(cc2N2CCOCC2)n(C)c(=O)n3C)ccc1F`, the survival was inactive: 82%.

For `CCc1nc2ccc(C(=O)NCCc3ccc(SC)cc3)cc2nc1CC`, the survival was inactive: 81%.

Regarding `COC(=O)c1c(SCC(=O)Nc2cccc(C(F)(F)F)c2)[nH]c2ccccc2c1=O`, the survival is inactive: 84%.

With `COc1ccc(NC(=O)C(CC(C)C)NC(=O)C2CCCCC2)c(OC)c1` (centres undefined), the survival is inactive: 63%.

On to `CC(C)NC(=O)Cn1ncn2c(cc3cc(F)ccc32)c1=O`, for which the survival was inactive: 83%.

With `Clc1cccc(-c2nnc(CN3CCN(c4ccccn4)CC3)o2)c1`, the survival is inactive: 82%.

Consider `COCCNc1c(-c2ccc(N)cc2)nc2ccc(C)cn12`, for which the survival was inactive: 101%.

Take `COc1ccc(-n2c(=O)c3ccccc3n(Cc3ccc(F)cc3Cl)c2=O)cc1OC`: the survival was inactive: 96%.

In the case of `CCc1ccccc1N1CC(c2nnc(NC(=O)c3ccco3)s2)CC1=O` (centres undefined), the survival was inactive: 82%.

For `CCN(CC)S(=O)(=O)c1ccc2c(c1)N(CC(=O)N1CCN(c3cc(Cl)ccc3C)CC1)C(=O)CO2`, the survival was inactive: 78%.

For `CC(=O)OCc1cnc(C)c2oc(=O)c(C(=O)Nc3ccc(F)cc3C)cc12`, the survival was inactive: 124%.

With `Cc1cccc(N2CCN(c3nc4ccccc4c4nc(-c5ccccc5)nn34)CC2)c1C`, the survival is inactive: 87%.

For the compound `COc1ccc(NC(=O)C2CCN(C(=O)c3sc4nc[nH]c(=O)c4c3C)CC2)c(OC)c1`, the survival is inactive: 81%.

As for `Nc1nc(-c2ccco2)nn1C(=O)c1ccc(Cl)cc1Cl`, the survival was inactive: 97%.

Take `COc1ccc(C2CC(=O)c3cc(-c4nc(-c5ccc(Cl)cc5)cs4)c(=O)[nH]c3C2)cc1` (centres undefined): the survival is inactive: 138%.

Turning to `COc1cc(NC(=O)c2cc(-c3ccccc3O)no2)cc(OC)c1OC`, the survival is inactive: 73%.

On to `CC(=O)Nc1nonc1-c1nnc(SCC(=O)Nc2ccccc2Cl)n1C`, for which the survival was inactive: 83%.

Consider `CCOc1ccc(CNC(=O)C2CCN(C3=NS(=O)(=O)C(c4ccc(C)cc4)=C3CC)CC2)cc1`, for which the survival is inactive: 89%.
